The values that follow are results of earlier work, collected in PMC11006913.

The other results are listed elsewhere or left out.

Common to all, as to conditions: PBM; conditions not shown; double strand, one strand shown; scale: upbm affinity estimate (log intensity, higher = more binding, comparable within an allelic series)
The target in data set [1] is PITX2 L100Q (Homo sapiens) (UniProt Q99697).
Data set [2] has as its target PITX2 R108H (Homo sapiens) (UniProt Q99697).
Data set [3] deals with PITX2 R130W (Homo sapiens) (UniProt Q99697).
The target of data set [4] is PITX2 T114P (Homo sapiens) (UniProt Q99697).
Data set [5] concerns the target PROP1 R112Q (Homo sapiens) (UniProt O75360).
In data set [6] the target is PROP1 R99Q (Homo sapiens) (UniProt O75360).

On to CCTGCACC [8-mer CCTGCACC], for which the binding signal in data set [1] was 8.06; in data set [2] it was 8.11; in data set [3], 8.17; in data set [4] it was 8.16.
In the case of CCCAGGCC [8-mer CCCAGGCC], the binding signal was 8.1 in data set [1], 7.91 in data set [2], 7.74 in data set [3] and 7.93 in data set [4].
Regarding AGATTATC [8-mer AGATTATC], the binding signal is 10.9 in data set [1], 9.21 in data set [2], 8.72 in data set [3] and 9.39 in data set [4].
As to CGGATTAG [8-mer CGGATTAG], the binding signal in data set [1] was 11.3; in data set [2] it was 9.53; in data set [3], 8.33; in data set [4], 9.91.
In the case of AAGATTAG [8-mer AAGATTAG], the binding signal is 10.9 in data set [1], 9.12 in data set [2], 8.52 in data set [3] and 9.3 in data set [4].
Regarding GAGCGGGC [8-mer GAGCGGGC], the binding signal in data set [1] was 7.97; in data set [2] it was 8.03; in data set [3], 7.9; in data set [4], 8.02.
Regarding GTGCGCCA [8-mer GTGCGCCA], the binding signal in data set [1] was 7.92; in data set [2], 8.14; in data set [3] it was 8.08; in data set [4], 8.18.
On to ATTTAATC [8-mer ATTTAATC], for which the binding signal in data set [1] is 10.9; in data set [2] it was 9.39; in data set [3], 8.76; in data set [4], 9.57.
AAGATTAA [8-mer AAGATTAA]: the binding signal was 11 in data set [1], 9.3 in data set [2], 8.56 in data set [3] and 9.42 in data set [4].
As to AGGATTTA [8-mer AGGATTTA], the binding signal in data set [1] was 10.8; in data set [2], 9.22; in data set [3], 8.71; in data set [4], 9.42.
Turning to GGAGATTA [8-mer GGAGATTA], the binding signal is 11.2 in data set [1], 9.4 in data set [2], 8.62 in data set [3] and 9.75 in data set [4].
AGAGATTA [8-mer AGAGATTA]: the binding signal was 11.2 in data set [1], 9.56 in data set [2], 8.65 in data set [3] and 9.88 in data set [4].
As for TAATCCAA [8-mer TAATCCAA], the binding signal in data set [1] was 11.1; in data set [2] it was 9.4; in data set [3] it was 8.76; in data set [4] it was 9.68.
With GCCCGAAC [8-mer GCCCGAAC], the binding signal in data set [1] is 8.17; in data set [2] it was 8.18; in data set [3] it was 8.04; in data set [4], 8.09.
In the case of TAATCCGA [8-mer TAATCCGA], the binding signal in data set [1] was 11.3; in data set [2], 9.58; in data set [3] it was 8.62; in data set [4], 9.93.
AGTAATCC [8-mer AGTAATCC]: the binding signal was 11.2 in data set [1], 9.33 in data set [2], 8.61 in data set [3] and 9.8 in data set [4].
Turning to CACTGCCC [8-mer CACTGCCC], the binding signal is 8.42 in data set [1], 8.21 in data set [2], 8.18 in data set [3] and 8.26 in data set [4].
Regarding ACCGCACC [8-mer ACCGCACC], the binding signal was 8.2 in data set [1], 8.09 in data set [2], 7.99 in data set [3] and 8.15 in data set [4].
On to CGGCCCCA [8-mer CGGCCCCA], for which the binding signal in data set [1] was 8.21; in data set [2] it was 7.99; in data set [3], 7.91; in data set [4], 8.02; in data set [5], 10.9; in data set [6], 11.
Consider CTGGATTA [8-mer CTGGATTA], for which the binding signal in data set [1] is 11.4; in data set [2], 9.39; in data set [3] it was 8.69; in data set [4], 9.85.
For CAGGCCCA [8-mer CAGGCCCA], the binding signal in data set [1] is 8.47; in data set [2], 8.06; in data set [3], 7.97; in data set [4], 8.15.
Consider CGTTGGCC [8-mer CGTTGGCC], for which the binding signal in data set [1] was 8.32; in data set [2], 8.16; in data set [3] it was 8.08; in data set [4], 8.2.
In the case of GGGCTTAA [8-mer GGGCTTAA], the binding signal is 11 in data set [1], 8.93 in data set [2], 8.22 in data set [3] and 9.48 in data set [4].
Consider ACGGGCCC [8-mer ACGGGCCC], for which the binding signal is 8.15 in data set [1]; 7.96 in data set [2]; 7.8 in data set [3]; 8.01 in data set [4]; 10.9 in data set [5]; 10.9 in data set [6].
AGGTATTA [8-mer AGGTATTA]: the binding signal in data set [4] is 9.49.
As for AGATCCCC [8-mer AGATCCCC], the binding signal in data set [2] was 8.28.
As to CGGCTTAG [8-mer CGGCTTAG], in data set [2], the binding signal was 8.59.
Take GGGATCAC [8-mer GGGATCAC]: the binding signal in data set [2] was 8.44.
ATCCCCTA [8-mer ATCCCCTA]: the figures for the binding signal in data set [2], in data set [3] and in data set [4] were 8.75, 8.52 and 8.77, respectively.
For the sequence GCGGCCAC [8-mer GCGGCCAC], the binding signal was 7.93 in data set [1]; 8 in data set [2]; 7.87 in data set [3]; 7.99 in data set [4]; 11 in data set [5]; 11 in data set [6].
For the sequence GTATTAGA [8-mer GTATTAGA], the binding signal in data set [1] was 10.3; in data set [3], 8.84.
As to AAGATCCC [8-mer AAGATCCC], in data set [2], the binding signal was 8.38.
As for GGGTATTA [8-mer GGGTATTA], the binding signal in data set [4] was 9.44.
Turning to CTATAATA [8-mer CTATAATA], the results for the binding signal in data set [2] and in data set [3] were 8.82 and 8.72, respectively.
On to GATTAAAA [8-mer GATTAAAA], for which the binding signal in data set [1] is 10.8; in data set [2], 9.38; in data set [4] it was 9.55.
CCAATCCA [8-mer CCAATCCA]: in data set [5], the binding signal is 11.7.
Take GTAAGCCA [8-mer GTAAGCCA]: the binding signal in data set [2] was 8.5.
Turning to TGATCCCA [8-mer TGATCCCA], in data set [2], the binding signal is 8.58.
CCGGCTTA [8-mer CCGGCTTA]: the binding signal in data set [2] was 8.54.
Turning to CACTAATC [8-mer CACTAATC], the binding signal in data set [1] was 10.8; in data set [4], 9.41.
Consider CCGGACCG [8-mer CCGGACCG], for which the binding signal in data set [1] is 8.24; in data set [2], 7.9; in data set [3], 7.72; in data set [4], 7.96; in data set [5] it was 10.9; in data set [6] it was 10.9.
Turning to CCTAAGCC [8-mer CCTAAGCC], the binding signal in data set [2] is 8.57.
In the case of GGCTTACC [8-mer GGCTTACC], in data set [2], the binding signal is 8.44.
As to GGGCTTTA [8-mer GGGCTTTA], in data set [2], the binding signal was 8.39.
With ACGGTAAT [8-mer ACGGTAAT], the results for the binding signal in data set [2], in data set [3] and in data set [4] were 8.74, 8.59 and 8.73, respectively.
For AATAATGC [8-mer AATAATGC], the binding signal in data set [1] was 9.87; in data set [3], 8.8.
Turning to CCTGATCC [8-mer CCTGATCC], the binding signal in data set [2] is 8.38.
Regarding CTGATCCC [8-mer CTGATCCC], the binding signal in data set [2] is 8.47.
AAGTCTAA [8-mer AAGTCTAA]: the binding signal in data set [2] is 8.7; in data set [3], 8.56; in data set [4], 8.67.
Turning to GCAAAGCC [8-mer GCAAAGCC], the binding signal in data set [2] was 8.18.
With AAAGCCCC [8-mer AAAGCCCC], the binding signal in data set [2] is 8.3.
Regarding CTTAATTC [8-mer CTTAATTC], in data set [2], the binding signal was 9.22.
Turning to GATAAGAA [8-mer GATAAGAA], the values for the binding signal in data set [2], in data set [3] and in data set [4] were 8.83, 8.6 and 8.79, respectively.
CGGTTTTA [8-mer CGGTTTTA]: the binding signal is 8.53 in data set [2], 8.42 in data set [3] and 8.54 in data set [4].
For the sequence AAGATTAT [8-mer AAGATTAT], the binding signal in data set [2] was 9.27; in data set [4], 9.42.
CTAAGCTC [8-mer CTAAGCTC]: the binding signal in data set [2] was 8.46.
For ATCTAATC [8-mer ATCTAATC], the binding signal in data set [4] was 9.41.
Consider GATTATAA [8-mer GATTATAA], for which, in data set [4], the binding signal is 9.56.
GAGGCTTA [8-mer GAGGCTTA]: the binding signal in data set [2] was 8.66.
As to GGGGATCA [8-mer GGGGATCA], the binding signal in data set [2] was 8.57.
In the case of GATTAGTA [8-mer GATTAGTA], the figures for the binding signal in data set [1] and in data set [4] were 10.8 and 9.48, respectively.
Take ATATAATC [8-mer ATATAATC]: in data set [4], the binding signal was 9.54.
As for CTAAAGCC [8-mer CTAAAGCC], the binding signal in data set [2] is 8.58.
For AGCCCCGC [8-mer AGCCCCGC], the binding signal in data set [5] was 10.8; in data set [6], 11.
As to GGTAATCA [8-mer GGTAATCA], the figures for the binding signal in data set [5] and in data set [6] were 12.3 and 11.8, respectively.
Consider AAGCCGGC [8-mer AAGCCGGC], for which the binding signal in data set [5] and in data set [6] was 10.9 each time.
